# Data as given in PubChem BioAssay AID1508642 (National Center for Advancing Translational Sciences (NCATS), 2021).
# About 200 (0.47%) of roughly 43,000 compounds were called active. Roughly 12% stayed inconclusive and do not appear here. Calls follow the shape of the dose curve; as a rule, active = well fitted cell-killing curve with a large enough effect; inconclusive = small, poorly fitted or top-dose-only effect, or effect the other way; inactive = flat fitted curve, though single readings scatter. Some of the results follow.
# Assay: Cell viability qHTS assay in S16 Pmp22-F2sN cells; also: nearly all actives have a fitted effect of over 65% in size
# Conditions: S16 Pmp22-F2sN Schwann cells (luciferase reporters placed in the Pmp22 gene) viability, CellTiter-Glo, 24 h; series mostly up to 57.5 µM; activity change, negative = cytotoxicity: at the top concentration
# Summary of the method: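 Rat S16 Schwann reporter line, 24 h treatment with library compounds delivered at 23 nL per well. Cell viability by CellTiter-Glo luminescence.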
# % is scaled to controls: 0 for no effect and ±100 for the full control effect; potency is read from the fitted curve at half-maximal effect.
Compound,"activity change, negative = cytotoxicity",Potency
Cc1cccc(C)c1NC(=O)CSc1nc2ncccc2o1,inactive: 2.48%,–
COc1ccc(Cn2c(CCC(=O)Nc3cccc(OC)c3)nc3cccnc32)cc1,inactive: -0.392%,–
CC(=O)N1CCc2cc(CNC(=O)Nc3cc(Cl)ccc3C)ccc21,inactive: -3.08%,–
CCc1ccc(CNC(=O)C2CCN(c3nc4ccccc4nc3C(F)(F)F)CC2)cc1,inactive: 4.75%,–
Cc1ccc(NC(=O)Cn2nnc(-c3nc(-c4ccncc4)no3)c2N)c(C)c1,inactive: 11.1%,–
CC(NC(=O)C1CCN(C(=O)c2ccc(-n3ccc4ccccc43)s2)CC1)c1ccccc1 (stereo not drawn),inactive: -9.74%,–
COc1ccccc1NC(=O)C1=C(C)Nc2nc(SCc3ccc(Cl)cc3)nn2C1c1ccccc1Cl (stereo not drawn),inactive: -5.41%,–
CCOC(=O)c1c(NC(C)=O)c2c3c(sc2n1Cc1ccc(Cl)cc1)CCCC3,inactive: 17.2%,–
COc1cc(C2NC(=O)N(C)C3=C2C(=O)N(c2cccc(Cl)c2)C3)ccc1O (stereo not drawn),inactive: -1.64%,–
CCOC(=O)C1CCN(C(=O)CN2c3ccc(C(C)C)cc3-c3ccccc3S2(=O)=O)CC1,inactive: -0.441%,–
CCOc1ccc(OC(=O)c2cn(-c3cccc(OC)c3)c(=O)c3ccccc23)cc1,inactive: 2.24%,–
CC1CCN(C(=O)c2cc3c(=O)n(C)c4ccccc4c3s2)CC1,inactive: -1.63%,–
CS(=O)(=O)c1oc(-c2ccc(F)cc2)nc1S(=O)(=O)c1ccc(Cl)cc1,–,active: 5.62 µM
CCOc1ccccc1CNC(=O)c1ccc(-c2nc(CSc3ccc(C)cc3)c(C)o2)cc1,inactive: -0.83%,–
COc1ccc(-n2c(=O)c3c(C)c(C)sc3n(CC(=O)NCc3ccc(C)cc3)c2=O)c(OC)c1,inactive: 6.29%,–
O=C(NCc1ccc(F)cc1)C1CCCN(c2ncnc3onc(-c4ccc(F)cc4)c23)C1 (stereo not drawn),inactive: 2.79%,–
COc1cccc(-n2c(SCC(=O)Nc3cccc(Cl)c3)nc3c(oc4ccccc43)c2=O)c1,inactive: -10.7%,–
Cc1c(NC(=O)CC(C)C)cccc1-c1nc2cccnc2s1,inactive: -15.2%,–
O=C(CSc1cn(CCNC(=O)c2ccccc2F)c2ccccc12)Nc1ccccc1F,inactive: 13.1%,–
COc1ccc(/C=C\C(=O)NC2CC(=O)N(c3ccc(F)cc3)C2)cc1OC (stereo not drawn),inactive: 7.17%,–
CCc1ccc(NCc2cc3ccc(OC)cc3n(CC(=O)Nc3ccc(C(C)C)cc3)c2=O)cc1,inactive: -22.1%,–
Cc1ccc(Nc2c(-c3ccsc3)nc3cccc(C)n23)cc1,inactive: -0.137%,–
CCOC(=O)CNC(=O)c1ccc(-c2nn(C)c(=O)c3ccccc23)cc1,inactive: 28.2%,–
COc1ccc(Cn2c(SCC(=O)Nc3ccc(OC)cc3)nc3ccccc32)cc1,inactive: -11.8%,–

Compound,"activity change, negative = cytotoxicity",Potency
O=C(COCc1cc(-c2ccco2)on1)Nc1cccc(O)c1,inactive: 3.74%,–
COc1cc(/C=C/c2nc3cc(Cl)ccc3c(=O)n2-c2cccc(C(F)(F)F)c2)cc(OC)c1OC,inactive: -17.2%,–
COc1cc(NC(=O)Nc2nnc(N3CCCCCC3)s2)cc(OC)c1,inactive: 8.37%,–
CC1CCCN(Cc2c(O)ccc3c(=O)c(Oc4ccc(C(C)(C)C)cc4)c(C(F)(F)F)oc23)C1 (stereo not drawn),inactive: 5.3%,–
Cn1c(=O)c(=O)n(C)c2cc(S(=O)(=O)CCC(=O)Nc3cccc(C(F)(F)F)c3)ccc21,inactive: -7.49%,–
Cc1ccc(-c2nc3c(cnn3-c3ccccc3)c(=O)n2-c2cccc(Cl)c2)cc1,inactive: -14.7%,–
CN(C)S(=O)(=O)c1ccc2c(c1)N(CC(=O)N1CCN(c3cccc(Cl)c3)CC1)CCS2,inactive: 12.1%,–
COc1ccc(-c2cn3nc(N4CCC(C(=O)Nc5ccc(Cl)cc5C)CC4)sc3n2)cc1,inactive: 7.9%,–
COc1ccc(-n2nc(C(=O)NCCc3ccc(OC)c(OC)c3)c3c4ccccc4n(C)c3c2=O)cc1Cl,inactive: 3.67%,–
Cc1oc(-c2ccc(C(=O)NCCc3ccc(Cl)cc3)cc2)nc1CSc1ccccc1,inactive: 1.58%,–
O=C(Cn1cc(SCc2ccccc2)c2ccccc21)N1CCCCCC1,inactive: -29.1%,–
CCOc1ccccc1CNC(=O)c1cnc2c(-c3ccc(OCC)c(OCC)c3)c(C)nn2c1C,inactive: -2.71%,–
Cc1ccc(S(=O)(=O)n2nc(C)c(S(=O)(=O)N3CCC(C)CC3)c2C)cc1,inactive: 11.2%,–
O=C(NCc1ccccc1)c1ccc2c(c1)N(Cc1cccc(Cl)c1)C(=O)c1ccccc1S2(=O)=O,inactive: -1.89%,–
Cc1ccc2nc(-c3ccc(Cl)c(NC(=O)c4cccc([N+](=O)[O-])c4C)c3)oc2c1,inactive: 6.45%,–
Cc1ccccc1CN1C(=O)c2ccccc2Sc2ccc(C(=O)OCc3ccco3)cc21,inactive: 1.92%,–
CCOC(=O)C1CCC(CN(Cc2c(Cl)cccc2Cl)S(=O)(=O)c2ccc(Cl)cc2)CC1 (stereo not drawn),inactive: -17.8%,–
CCn1ccc2cc(S(=O)(=O)N3CCC(C(=O)NCc4ccc(OC)cc4)CC3)ccc21,inactive: -4.89%,–
Cc1ccc(-c2nc(SCC(=O)N3CCc4ccccc43)c3c(=O)n(C)c(=O)n(C)c3n2)cc1,inactive: 8.11%,–
Cc1ccc(N2CCN(c3c(CN4CCCC4)c(=O)oc4ccccc34)CC2)c(C)c1,inactive: 6.65%,–
CCN(C(=O)c1cccn(Cc2ccccc2C)c1=O)c1ccccc1,inactive: 3.85%,–
CCOC(=O)C1CCN(C(=O)Cn2ncc3c4ccccc4n(Cc4ccccc4F)c3c2=O)CC1,inactive: 3.94%,–
CN(C)c1ccc(NC(=O)CN2C(=O)c3ccccc3Sc3ccc(C(=O)N4CCCC4)cc32)cc1,inactive: 4.23%,–
Cc1ccc(NC(=O)CN2C(=O)CCn3nc(-c4cccn4C)cc32)c(Cl)c1,inactive: -25.5%,–

Compound,"activity change, negative = cytotoxicity",Potency
O=c1n(Cc2ccc(F)cc2)nc2n1-c1cc(Cl)ccc1OC2,inactive: 17.5%,–
Cc1nnc(NC(=O)CSc2nnc3c(n2)[nH]c2ccccc23)s1,inactive: -20.3%,–
Cc1nn(CCCC(=O)NCc2cccc(Cl)c2)c(=O)c2c1sc1ccccc12,inactive: 3.26%,–
Cc1cccc(N2CCN(CCCNC(=O)c3sc4ncccc4c3-n3cccc3)CC2C)c1 (stereo not drawn),inactive: -15.5%,–
COC(=O)c1cnn(-c2ccc(C(=O)Nc3ccc(OC(F)(F)F)cc3)cc2)c1N,inactive: 7.18%,–
CCc1ccc(NC(=O)CN2CCSc3ccc(S(=O)(=O)N4CCCC4)cc32)cc1,inactive: -5.5%,–
COc1ccc(CCNc2nc(-c3ccc(F)cc3)cc(C(F)(F)F)n2)cc1OC,inactive: 12.7%,–
COc1ccc(C(CNC(=O)c2cccc([N+](=O)[O-])c2)N2CCOCC2)cc1 (stereo not drawn),inactive: 13.8%,–
Cc1ccc(Cc2cnc(NC(=O)C3Cc4ccc(C)cc4C(=O)O3)s2)cc1 (stereo not drawn),inactive: 19%,–
CCOc1ccc(S(=O)(=O)c2cn(C)c3ccccc3c2=O)cc1,inactive: 6.94%,–
CC(NC(=O)c1c2c(nc3ccccc13)C(=O)N(C1CCCCC1)C2)c1ccccc1 (stereo not drawn),inactive: -9.18%,–
Cc1ccc(CNC(=O)Cn2c(=O)ccc3cc(S(=O)(=O)N4CCCC4)ccc32)cc1,inactive: 14.2%,–
CCC(=O)N1CCc2cc(Br)cc(S(=O)(=O)CCC(=O)N3CCN(c4ccc(OC)cc4)CC3)c21,inactive: -0.078%,–
O=C(CCCn1c(=O)c2ccccc2n(CC(=O)Nc2cccc(Cl)c2)c1=O)NCc1ccc2c(c1)OCO2,inactive: 1.52%,–
COc1ccc(C(=O)NCC(c2ccc(N(C)C)cc2)N2CCCC2)cc1 (stereo not drawn),inactive: 24.7%,–
CC(=O)c1ccc(N2CCN(c3nc4c(S(=O)(=O)c5ccc(C)c(C)c5)nnn4c4ccc(Cl)cc34)CC2)cc1,inactive: 8.76%,–
Cc1cc(C)cc(-n2ccnc2SCC(=O)Nc2ccc(C)cc2C)c1,inactive: -22.4%,–
CCC(=O)Nc1ccccc1-c1nc2ccccc2n(C(C)C(=O)Nc2cccc(Cl)c2C)c1=O (stereo not drawn),inactive: -7.33%,–
CC(C)c1ccc(Nc2ncnc3c2nc2n3CCCC2)cc1,inactive: -22.9%,–
COc1cc(NC(=O)CNC(=O)Cn2ccc3ccccc3c2=O)cc(OC)c1OC,inactive: 0.166%,–
COCCn1c(C)cc(O)c(C(c2ccc(Cl)cc2)N2CCN(c3ccccc3)CC2)c1=O (stereo not drawn),inactive: -9.85%,–
CN1C(C(=O)c2ccccc2)=C(NC(=O)c2ccccc2Br)c2ccccc2S1(=O)=O,inactive: -0.7%,–
COc1ccc(NC(=O)Nc2cccc(OCc3cc(=O)n4cccc(C)c4n3)c2)c(OC)c1,inactive: -2.76%,–
CCCCCSc1nnc2c(n1)OC(CC)Nc1ccc(Br)cc1-2 (stereo not drawn),inactive: 7.12%,–

Compound,"activity change, negative = cytotoxicity",Potency
Cc1cc(C)cc(Nc2nc3ccccc3n3cnnc23)c1,inactive: 1.64%,–
COc1ccc(-c2cc(C(C)=O)c(C)n2CCC(=O)Nc2ccc(C)cc2Cl)cc1,inactive: -3.13%,–
COc1cc(C2N=C(N)Nc3nc4ccccc4n32)ccc1OCC(=O)O (stereo not drawn),inactive: 3.09%,–
CCc1ccc(NC(=O)Cc2csc(COc3cccc(C)c3)n2)cc1,inactive: 0.352%,–
CCn1c(=O)cc(SCC(=O)NCCc2cccc(C)c2)c2ccccc21,inactive: -22.6%,–
COc1ccc(-c2nc3nc(C)cc(N4CCN(c5cccc(C(F)(F)F)c5)CC4)n3n2)cc1,inactive: 21.7%,–
COCCCNC(=O)c1ccc(Cn2c(=O)c3ccccc3n(CC(=O)Nc3ccc(C)cc3C)c2=O)cc1,inactive: 3.31%,–
CCOC(=O)N1CCc2c(sc3c2c(=O)n(-c2ccc(Cl)cc2)c(=O)n3Cc2cccc(OC)c2)C1,inactive: -0.712%,–
Cc1cccc(N2CC(c3nc4ccccc4n3CCC3CCCCC3)CC2=O)c1 (stereo not drawn),inactive: 0.1%,–
Cc1cccc2c1-c1sc(C(=O)NCc3ccc(Cl)cc3)cc1CO2,inactive: -0.135%,–
CCN(Cc1ccccc1)C(=O)c1cc2c(=O)oc3ccc(C)cc3c2s1,inactive: -4.56%,–
CCc1ccc(S(=O)(=O)c2nnn3c2nc(Nc2cc(OC)cc(OC)c2)c2cc(Cl)ccc23)cc1,inactive: -1.12%,–
Cc1cc(C)cc(NC(=O)Cn2nnc(C(=O)NCc3ccccc3Cl)c2N)c1,inactive: -15%,–
CCOc1ccc(C(=O)Nc2ccccc2C(=O)OCc2cc(=O)n3nc(C4CC4)sc3n2)cc1,inactive: 26.2%,–
COc1ccc(CCNC(=O)c2cc3c(s2)-c2c(C)cccc2OC3)c(OC)c1,inactive: 10.2%,–
Cc1cccc(NC(=O)CSc2nc(=O)n(Cc3ccco3)c3c2CCC3)c1C,inactive: 0.679%,–
CCOc1ccc(NC(=O)[C@H]2O[C@@H]3OC(C)(C)O[C@@H]3[C@H]3OC(C)(C)O[C@H]32)cc1,inactive: 3.23%,–
CCOc1ccccc1CNC(=O)c1cn(-c2ccc(OC)cc2)c(=O)c2ccccc12,inactive: -17.7%,–
COc1cccc(CNC(=O)CSc2n[nH]c(-c3ccccc3Cl)n2)c1OC,inactive: 4.27%,–
CCOc1ccc(CN(C(=O)c2nc(SC)ncc2Cl)C2CCS(=O)(=O)C2)cc1 (stereo not drawn),inactive: 8.85%,–
O=C(Nc1nc2ccc(S(=O)(=O)N3CCCC3)cc2s1)c1ccc(F)cc1,inactive: -1.38%,–
